PubChem BioAssay AID1347073 (National Center for Advancing Translational Sciences (NCATS), 2019)
Among all 45,000 compounds or so, about 200 (0.44%) were called active. Inconclusive results (about 7%) are left out. The call rests on the fitted dose curve; in most records, active means well fitted activation curve with a large enough effect; inconclusive means small, poorly fitted or top-dose-only effect; inactive means no such curve, though single readings can be large or run the other way. The list shows a part of the results. Peptide text beside a SMILES is read from it. * marks the point of attachment. Boc = CC(C)(C)OC(=O)*

Assay: qHTS of TDP-43 Inhibitors: NCGC Sytravon Library Screen; further: 0% is about no effect; nearly all actives have a fitted effect of over 55% in size
Details: yeast TDP-43 toxicity rescue, BacTiter-Glo growth, 24 h; series mostly up to 46.1 µM; growth rescue (activation): at the top concentration
Outline: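 TDP-43-expressing yeast, pregrown in raffinose, seeded at OD600 0.02 in galactose medium with compound for 24 hr at 30 deg C. Growth read by BacTiter-Glo luminescence, so rescue of toxicity appears as activation.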

Question: For CC1CCC2(CC1)NC(=O)N(CC(=O)NCCc1ccccc1)C2=O (stereo not drawn), which “growth rescue (activation)” value is on record?
Answer: Its value is inactive: -4.56%.

Question: For O=C(C1=NN[C@@H]2C(=O)N(c3ccccc3C(F)(F)F)C(=O)[C@H]12)C(c1ccccc1)c1ccccc1, which “growth rescue (activation)” value is on record?
Answer: Its value is inactive: 3.87%.

Question: Which “growth rescue (activation)” value does the source give for O=C(CSc1n[nH]c(-c2ccco2)n1)Nc1ccccc1Cl here?
Answer: Its value is inactive: -0.456%.

Question: With CN(CC(=O)NNC(=O)c1cccnc1)S(=O)(=O)c1cc(Cl)ccc1Cl as the compound, how does the “growth rescue (activation)” value read?
Answer: The value was inactive: -4.59%.

Question: With CCCCCCCCCS(=O)(=O)Nc1cc(C)ccn1 as the compound, how does the “growth rescue (activation)” value read?
Answer: The value was inactive: 18.2%.

Question: With CC(=O)Nc1ccc(OCCC[n+]2cccc(C(=O)[O-])c2)cc1 as the compound, how does the “growth rescue (activation)” value read?
Answer: The value was inactive: 0.54%.

Question: Which “growth rescue (activation)” value does the source give for CN(C)c1ccc(/C=C(\NC(=O)c2ccccc2)C(=O)NCc2ccncc2)cc1 here?
Answer: Its value is inactive: -6.45%.

Question: With Cc1ccc(C)n1-n1c(C)nc2scc(-c3cccs3)c2c1=O as the compound, how does the “growth rescue (activation)” value read?
Answer: The value was inactive: 22%.

Question: For COc1ccc(NC(=O)C2CC(=O)N/C(=N/N=C/c3ccccc3)S2)cc1 (stereo not drawn), which “growth rescue (activation)” value is on record?
Answer: The value was inactive: -19.6%.

Question: For c1ccc2sc(NN=C3CCCCCC3)nc2c1, which “growth rescue (activation)” value is on record?
Answer: The value was inactive: 11.8%.

Question: For CC1(C(=O)NCC2CC2)CCN1C(=O)C/C=C/c1ccccc1 (stereo not drawn), which “growth rescue (activation)” value is on record?
Answer: Its value is inactive: 4.87%.

Question: For CN(C)c1ccc(-c2ccnc3c2CC(C)(C(=O)Nc2cccc(C(F)(F)F)c2)O3)cc1 (stereo not drawn), which “growth rescue (activation)” value is on record?
Answer: The value was inactive: -3.11%.

Question: With Cc1cc(C)n2nc(C(F)(F)F)c(-c3ccccc3)c2n1 as the compound, how does the “growth rescue (activation)” value read?
Answer: Its value is inactive: 1.11%.

Question: With O=C(COC(=O)Cc1ccc(F)cc1)Nc1cc(S(=O)(=O)N2CCOCC2)ccc1N1CCCC1 as the compound, how does the “growth rescue (activation)” value read?
Answer: The value was inactive: 0.29%.

Question: Which “growth rescue (activation)” value does the source give for O=C(COc1ccccc1[N+](=O)[O-])Nc1cccc(S(=O)(=O)N2CCCC2)c1 here?
Answer: The value was inactive: 6.89%.

Question: Which “growth rescue (activation)” value does the source give for Cc1cc(C2C(C#N)=C(N)OC3=C2C(=O)CC(C)(C)C3)c(C)s1 (stereo not drawn) here?
Answer: Its value is inactive: 23.2%.

Question: Which “growth rescue (activation)” value does the source give for COCCCNS(=O)(=O)c1ccc(SC)cc1 here?
Answer: Its value is inactive: -2.45%.

Question: With Cn1c2ccccc2c(=O)c2c(=O)n(-c3ccccc3)c(C3CCCCC3)nc21 as the compound, how does the “growth rescue (activation)” value read?
Answer: Its value is inactive: -3.16%.

Question: For COc1ccc(-n2c3c(cc(C(=O)NNc4ccccc4C)c2=O)C(=O)CC(C)(C)C3)cc1, which “growth rescue (activation)” value is on record?
Answer: Its value is inactive: 7.23%.

Question: For CC1CCCC(NC(=O)CSc2ccc(F)cc2)C1C (stereo not drawn), which “growth rescue (activation)” value is on record?
Answer: Its value is inactive: 8.59%.

Question: With Cc1ccccc1C(=O)NCC(=O)O as the compound, how does the “growth rescue (activation)” value read?
Answer: Its value is inactive: -5.53%.

Question: With Cc1cc(NC(=O)c2ccc3c(c2)C(=O)N(C(C)(C)C)C3=O)no1 as the compound, how does the “growth rescue (activation)” value read?
Answer: Its value is inactive: -12%.

Question: Which “growth rescue (activation)” value does the source give for O=C(NNC(=O)C12CC3CC(CC(C3)C1)C2)c1ccncc1 here?
Answer: Its value is inactive: 7.36%.

Question: Which “growth rescue (activation)” value does the source give for CN(C)c1ccnc(-n2cccc2/C=N/O)c1C#N here?
Answer: The value was inactive: 7.04%.

Question: For COc1ccc(C(=O)NC2CCN(C(=O)NCc3ccccc3)CC2)cc1, which “growth rescue (activation)” value is on record?
Answer: The value was inactive: -6.21%.

Question: Which “growth rescue (activation)” value does the source give for CCOC(=O)C(Cc1ccc(O)cc1)NC(=O)CNC(=O)C1CCCN1C(=O)OC(C)(C)C (stereo not drawn) (Boc-Pro-Gly-Tyr-OEt; configuration not given here) here?
Answer: The value was inactive: -33.1%.

Question: Which “growth rescue (activation)” value does the source give for CCOC(=O)/C(C#N)=N/Nc1c(C)n(C)n(-c2ccccc2)c1=O here?
Answer: The value was inactive: -3.46%.

Question: Which “growth rescue (activation)” value does the source give for CC(C)(CN1CCCC1)NS(=O)(=O)c1ccc(Cl)cc1 here?
Answer: The value was inactive: -0.184%.

Question: With CCOc1cc(N2CCOCC2)c(OCC)cc1NC(C)C(=O)N1CCC(C)CC1 (stereo not drawn) as the compound, how does the “growth rescue (activation)” value read?
Answer: The value was inactive: -3.39%.

Question: Which “growth rescue (activation)” value does the source give for CC(C)(CCl)C(=O)Nc1ccc(OC(F)(F)F)cc1 here?
Answer: The value was inactive: 2.3%.

Question: Which “growth rescue (activation)” value does the source give for COc1ccc(C2/C(=C(/O)c3ccc(F)cc3)C(=O)C(=O)N2c2ccccn2)cc1OC (stereo not drawn) here?
Answer: Its value is inactive: -5.38%.

Question: Which “growth rescue (activation)” value does the source give for COc1cc(-c2cc(NC=O)c3ncc(-c4ccc(F)cc4)n3c2)cc(OC)c1OC here?
Answer: The value was inactive: -2.81%.

Question: With Cc1nnc(N2C(=O)C(O)=C(C(=O)c3ccco3)C2c2cccc3ccccc23)s1 (stereo not drawn) as the compound, how does the “growth rescue (activation)” value read?
Answer: The value was inactive: 17.1%.

Question: Which “growth rescue (activation)” value does the source give for COc1ccc(/C=C/C2=NN(C)C(=O)CC2)cc1 here?
Answer: The value was inactive: 1.84%.

Question: Which “growth rescue (activation)” value does the source give for COc1ccc(NC(=O)COC(=O)CNC(=O)C2CCCCC2)cc1OC here?
Answer: Its value is inactive: 14.1%.

Question: For Cc1cc(NC(=O)C2(C)CCN2C(C)C)c2ccccc2n1 (stereo not drawn), which “growth rescue (activation)” value is on record?
Answer: Its value is inactive: -9.21%.

Question: Which “growth rescue (activation)” value does the source give for Cc1ccc(C(C(=O)NCc2ccc(F)cc2)N(Cc2ccco2)C(=O)c2snc(C(N)=O)c2N)o1 (stereo not drawn) here?
Answer: Its value is inactive: 21.6%.

Question: For c1coc(C2=Nc3cccc4cccc(c34)N2)c1, which “growth rescue (activation)” value is on record?
Answer: Its value is inactive: -24.1%.

Question: Which “growth rescue (activation)” value does the source give for CCCCn1c(-c2cccnc2)n[nH]c1=S here?
Answer: Its value is inactive: 20.8%.

Question: For OC(c1ccccc1)c1ncc(-c2ccc(C(F)(F)F)cc2)[nH]1 (stereo not drawn), which “growth rescue (activation)” value is on record?
Answer: The value was inactive: 8.29%.

Question: With CC1CCN(C(=O)CSc2nc(C3CC3)nc3ccccc23)CC1 as the compound, how does the “growth rescue (activation)” value read?
Answer: Its value is inactive: 19.7%.

Question: With CCN(CC)c1ccc(CNC(=O)C/C(C)=N/NC(=O)COc2ccc(C)cc2Br)cc1 as the compound, how does the “growth rescue (activation)” value read?
Answer: The value was inactive: -6.63%.

Question: Which “growth rescue (activation)” value does the source give for COc1ccc(C(=O)OCC(=O)NC2CCCC2)cc1OC here?
Answer: Its value is inactive: 0.142%.

Question: Which “growth rescue (activation)” value does the source give for OC(CN1CCCCC1)Cn1c2ccccc2c2cc(Br)ccc21 (stereo not drawn) here?
Answer: Its value is inactive: -13.8%.

Question: With O=C(CC1S/C(=N/N=C/c2c[nH]c3ccccc23)NC1=O)Nc1ccccc1 (stereo not drawn) as the compound, how does the “growth rescue (activation)” value read?
Answer: Its value is inactive: 8.47%.

Question: Which “growth rescue (activation)” value does the source give for Cc1ncoc1C(=O)N1CCCC(CCC(=O)NCc2ccccc2F)C1 (stereo not drawn) here?
Answer: Its value is inactive: -2.64%.

Question: For O=C(/C=C/c1ccco1)NC(=S)N1CCCCC1, which “growth rescue (activation)” value is on record?
Answer: Its value is inactive: 2.45%.

Question: Which “growth rescue (activation)” value does the source give for Cc1ccccc1C(=O)OCC(=O)N(C)c1ccccc1 here?
Answer: The value was inactive: 13.1%.

Question: Which “growth rescue (activation)” value does the source give for O=C(Nc1ccccc1)N1C(=O)C2(OCCO2)c2ccccc21 here?
Answer: The value was inactive: 10.6%.

Question: With O=C(CN1C(=O)c2ccccc2S1(=O)=O)NC(Nc1ccccc1F)C(Cl)(Cl)Cl (stereo not drawn) as the compound, how does the “growth rescue (activation)” value read?
Answer: Its value is inactive: -17.2%.

Question: For COc1ccc(C(c2nnnn2C2CCCC2)N2CCN(C(=O)c3ccco3)CC2)cc1OC (stereo not drawn), which “growth rescue (activation)” value is on record?
Answer: The value was inactive: 1.19%.

Question: For CCOC1=C/C(=C/c2c(N)n3nc(S(=O)(=O)CC)sc3nc2=O)C=CC1=O, which “growth rescue (activation)” value is on record?
Answer: Its value is inactive: -0.469%.

Question: With Cc1cc(NN)nc2ccc(Cl)cc12 as the compound, how does the “growth rescue (activation)” value read?
Answer: The value was inactive: 3.96%.
